{
  "source": "patent US10472391B2",
  "about": "(priority 2013, dated 2019)",
  "origin": "cited, not measured here",
  "tested_on": "S. aureus",
  "details": "mouse, in vivo; cited from earlier work",
  "data": [
    {"compound": "CNC(=O)[C@@H](NC(=O)[C@H](CCCc1ccccc1)[C@H](C)N(O)C=O)C(C)(C)C", "note": "[GI254023X, (R)—N—((S)-3,3-dimethyl-1-(methylamino)-1-oxobutan-2-yl)-2-((S)-1-(N-hydroxyformamido)-ethyl)-5-phenylpentanamide]", "values": [
      {"measurement": "effect on S. aureus disease", "value": "blunted S. aureus disease"}
    ]}
  ]
}
